# Measurements published in the supplement of paper PMC10037445.
# Whole data set: some 2,900 compounds, median “NF-kB SEAP reporter activity, fold change vs agonist alone” near 0.99, cut for the highest 2% near 2.6. Some of the results follow.
# Columns and labels:
# RAW-Dual [1] = experiment: NF-kB SEAP reporter activity, fold change vs agonist alone; cytotoxicity flag (confluency mask): not cytotoxic; higher = enhanced NF-kB activity
# How it was run: (§1)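 Cytotoxic wells were those whose IncuCyte confluency was below 70% of agonist controls in both mask sets. The cells were RAW-Dual macrophages at 50,000 cells/well in DMEM on 384-well plates, dosed with 50 nL of library stock by pin tool, stimulated with a PRR agonist 1 h later, and kept at 37 °C, 5% CO2 for 20 hours. IRF and NF-κB reporter activity, as fold change over agonist-alone wells, came from supernatant read by QuantiLuc luminescence and QuantiBlue absorbance, respectively.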
# RAW-Dual [2] = experiment: NF-kB SEAP reporter activity, fold change vs agonist alone; higher = enhanced NF-kB activity
# How it was run: as §1
# RAW-Dual [3] = experiment: NF-kB SEAP reporter activity, fold change vs agonist alone; cytotoxicity flag (confluency mask): cytotoxic (confluency <70% of control); higher = enhanced NF-kB activity
# How it was run: as §1
# [4] = agonist: ODN 1826 (TLR9) 0.5 ug/mL
# [5] = agonist: Pam2CSK4 (TLR2/6) 0.1 ug/mL
# [6] = agonist: Pam3CSK4 (TLR2/1) 0.1 ug/mL
# [7] = library stock concentration (final ~1000-fold dilution): 10 mM, cytotoxicity flag (confluency mask): not cytotoxic, agonist: Imiquimod (TLR7) […]
# [8] = library stock concentration (final ~1000-fold dilution): 10 mM, cytotoxicity flag (confluency mask): not cytotoxic, agonist: MPLA (TLR4) […]
# [9] = library stock concentration (final ~1000-fold dilution): 10 mM, cytotoxicity flag (confluency mask): cytotoxic (confluency <70% of control), agonist: Imiquimod (TLR7) […]
# [10] = library stock concentration (final ~1000-fold dilution): 10 mM, cytotoxicity flag (confluency mask): cytotoxic (confluency <70% of control), agonist: MPLA (TLR4) […]
smiles,measurement,setting,value
COc1ccccc1OCC(O)CN1CCN(CC(=O)Nc2c(C)cccc2C)CC1.Cl.Cl (configuration not stated) (library stock concentration (final ~1000-fold dilution): 10 mM),NF-kB SEAP reporter activity,RAW-Dual [1]; agonist: LPS (TLR4) 0.1 ug/mL,0.912
same,NF-kB SEAP reporter activity,RAW-Dual [1]; [4],0.972
same,NF-kB SEAP reporter activity,RAW-Dual [1]; [5],1.01
same,NF-kB SEAP reporter activity,RAW-Dual [1]; [6],1.05
COc1ccccc1OCC(O)CN1CCN(CC(=O)Nc2c(C)cccc2C)CC1.Cl.Cl (configuration not stated),NF-kB SEAP reporter activity,RAW-Dual [2]; [7],0.889
same,NF-kB SEAP reporter activity,RAW-Dual [2]; [8],0.916
Oc1c(F)cc(-c2cnccc2-c2ccc(N3CCOCC3)cc2)cc1F (library stock concentration (final ~1000-fold dilution): 10 mM),NF-kB SEAP reporter activity,RAW-Dual [1]; agonist: LPS (TLR4) 0.1 ug/mL,1.12
same,NF-kB SEAP reporter activity,RAW-Dual [1]; [4],0.913
same,NF-kB SEAP reporter activity,RAW-Dual [1]; [5],0.947
same,NF-kB SEAP reporter activity,RAW-Dual [1]; [6],0.73
Oc1c(F)cc(-c2cnccc2-c2ccc(N3CCOCC3)cc2)cc1F,NF-kB SEAP reporter activity,RAW-Dual [2]; [7],1.08
same,NF-kB SEAP reporter activity,RAW-Dual [2]; [8],0.911
CCCCCCCCCCCCc1ccc(S(=O)(=O)Nc2nncs2)cc1,NF-kB SEAP reporter activity,RAW-Dual [2]; [9],0.947
same,NF-kB SEAP reporter activity,RAW-Dual [2]; [10],0.824
CCCCCCCCCCCCc1ccc(S(=O)(=O)Nc2nncs2)cc1 (library stock concentration (final ~1000-fold dilution): 10 mM),NF-kB SEAP reporter activity,RAW-Dual [3]; agonist: LPS (TLR4) 0.1 ug/mL,0.575
same,NF-kB SEAP reporter activity,RAW-Dual [3]; [4],0.796
same,NF-kB SEAP reporter activity,RAW-Dual [3]; [5],0.819
same,NF-kB SEAP reporter activity,RAW-Dual [3]; [6],0.683
CN1CCN(c2c(F)cc3c(=O)c(C(=O)O)cn4c3c2OCN4C)CC1 (library stock concentration (final ~1000-fold dilution): 2 mM),NF-kB SEAP reporter activity,RAW-Dual [1]; agonist: LPS (TLR4) 0.1 ug/mL,1.22
same,NF-kB SEAP reporter activity,RAW-Dual [1]; [4],1.04
same,NF-kB SEAP reporter activity,RAW-Dual [1]; [5],1.11
same,NF-kB SEAP reporter activity,RAW-Dual [1]; [6],1.18
CN1CCN(c2c(F)cc3c(=O)c(C(=O)O)cn4c3c2OCN4C)CC1,NF-kB SEAP reporter activity,"RAW-Dual [2]; library stock concentration (final ~1000-fold dilution): 2 mM, cytotoxicity flag (confluency mask): not cytotoxic, agonist: Imiquimod (TLR7) […]",1.04
same,NF-kB SEAP reporter activity,"RAW-Dual [2]; library stock concentration (final ~1000-fold dilution): 2 mM, cytotoxicity flag (confluency mask): not cytotoxic, agonist: MPLA (TLR4) […]",1.01
CC(NCc1ccc(OCc2cccc(F)c2)cc1)C(N)=O (configuration not stated) (library stock concentration (final ~1000-fold dilution): 10 mM),NF-kB SEAP reporter activity,RAW-Dual [1]; agonist: LPS (TLR4) 0.1 ug/mL,1.32
same,NF-kB SEAP reporter activity,RAW-Dual [1]; [4],0.933
same,NF-kB SEAP reporter activity,RAW-Dual [1]; [5],1.16
same,NF-kB SEAP reporter activity,RAW-Dual [1]; [6],0.745
CC(NCc1ccc(OCc2cccc(F)c2)cc1)C(N)=O (configuration not stated),NF-kB SEAP reporter activity,RAW-Dual [2]; [8],1.07
CC(CN(C)C)Oc1nc(Nc2cc3cccc(Cl)c3cn2)cnc1C#N (configuration not stated) (library stock concentration (final ~1000-fold dilution): 10 mM),NF-kB SEAP reporter activity,RAW-Dual [1]; agonist: LPS (TLR4) 0.1 ug/mL,0.783
same,NF-kB SEAP reporter activity,RAW-Dual [1]; [4],1.33
same,NF-kB SEAP reporter activity,RAW-Dual [1]; [5],0.55
same,NF-kB SEAP reporter activity,RAW-Dual [1]; [6],0.508
CC(CN(C)C)Oc1nc(Nc2cc3cccc(Cl)c3cn2)cnc1C#N (configuration not stated),NF-kB SEAP reporter activity,RAW-Dual [2]; [7],1.03
same,NF-kB SEAP reporter activity,RAW-Dual [2]; [8],0.831
CNC(=O)c1ccc(C)c(-n2c(C)cc(OCc3ccc(F)cc3F)c(Br)c2=O)c1,NF-kB SEAP reporter activity,RAW-Dual [2]; [7],0.696
same,NF-kB SEAP reporter activity,RAW-Dual [2]; [8],1.31
CNC(=O)c1ccc(C)c(-n2c(C)cc(OCc3ccc(F)cc3F)c(Br)c2=O)c1 (library stock concentration (final ~1000-fold dilution): 10 mM),NF-kB SEAP reporter activity,RAW-Dual [1]; agonist: LPS (TLR4) 0.1 ug/mL,1.55
same,NF-kB SEAP reporter activity,RAW-Dual [1]; [4],0.711
same,NF-kB SEAP reporter activity,RAW-Dual [1]; [5],0.565
same,NF-kB SEAP reporter activity,RAW-Dual [1]; [6],0.403
Cc1cc(OCc2nnc(SC3CCCC3)n2-c2cccnc2)ccc1-c1ccc(S(C)(=O)=O)cc1,NF-kB SEAP reporter activity,RAW-Dual [2]; [9],0.296
same,NF-kB SEAP reporter activity,RAW-Dual [2]; [10],0.342
Cc1cc(OCc2nnc(SC3CCCC3)n2-c2cccnc2)ccc1-c1ccc(S(C)(=O)=O)cc1 (library stock concentration (final ~1000-fold dilution): 10 mM),NF-kB SEAP reporter activity,RAW-Dual [3]; agonist: LPS (TLR4) 0.1 ug/mL,0.303
same,NF-kB SEAP reporter activity,RAW-Dual [3]; [4],0.336
same,NF-kB SEAP reporter activity,RAW-Dual [3]; [5],0.132
same,NF-kB SEAP reporter activity,RAW-Dual [3]; [6],0.162
CC(=O)NC(CC(C)C)C(=O)NC(CC(C)C)C(=O)NC(C=O)CCCNC(=N)N (configuration not stated),NF-kB SEAP reporter activity,RAW-Dual [2]; [7],0.983
same,NF-kB SEAP reporter activity,RAW-Dual [2]; [8],1.09
CC(=O)NC(CC(C)C)C(=O)NC(CC(C)C)C(=O)NC(C=O)CCCNC(=N)N (configuration not stated) (library stock concentration (final ~1000-fold dilution): 10 mM),NF-kB SEAP reporter activity,RAW-Dual [1]; agonist: LPS (TLR4) 0.1 ug/mL,1.01
same,NF-kB SEAP reporter activity,RAW-Dual [1]; [4],1.02
same,NF-kB SEAP reporter activity,RAW-Dual [1]; [5],1.08
same,NF-kB SEAP reporter activity,RAW-Dual [1]; [6],1.15
COc1cccc2c1C(=O)c1c(O)c3c(c(O)c1C2=O)CC(O)(C(C)=O)CC3OC1CC(N)C(O)C(C)O1.Cl (configuration not stated) (library stock concentration (final ~1000-fold dilution): 10 mM),NF-kB SEAP reporter activity,RAW-Dual [3]; agonist: LPS (TLR4) 0.1 ug/mL,0.249
same,NF-kB SEAP reporter activity,RAW-Dual [3]; [4],0.191
same,NF-kB SEAP reporter activity,RAW-Dual [3]; [5],0.0932
same,NF-kB SEAP reporter activity,RAW-Dual [3]; [6],0.195
COc1cccc2c1C(=O)c1c(O)c3c(c(O)c1C2=O)CC(O)(C(C)=O)CC3OC1CC(N)C(O)C(C)O1.Cl (configuration not stated),NF-kB SEAP reporter activity,RAW-Dual [2]; [9],0.365
same,NF-kB SEAP reporter activity,RAW-Dual [2]; [10],0.213
CC(C)S(=O)(=O)c1ccc2nccc(Nc3ccc4scnc4c3)c2c1 (library stock concentration (final ~1000-fold dilution): 10 mM),NF-kB SEAP reporter activity,RAW-Dual [1]; agonist: LPS (TLR4) 0.1 ug/mL,2.42
same,NF-kB SEAP reporter activity,RAW-Dual [1]; [4],1.39
same,NF-kB SEAP reporter activity,RAW-Dual [1]; [5],1.5
same,NF-kB SEAP reporter activity,RAW-Dual [1]; [6],1.56
CC(C)S(=O)(=O)c1ccc2nccc(Nc3ccc4scnc4c3)c2c1,NF-kB SEAP reporter activity,RAW-Dual [2]; [7],1.49
same,NF-kB SEAP reporter activity,RAW-Dual [2]; [8],1.34
CN(C)C1C(O)=C(C(N)=O)C(=O)C2(O)C(O)=C3C(=O)c4c(O)ccc(Cl)c4C(O)C3CC12.Cl (configuration not stated),NF-kB SEAP reporter activity,RAW-Dual [2]; [7],1.26
same,NF-kB SEAP reporter activity,RAW-Dual [2]; [8],1.37
CN(C)C1C(O)=C(C(N)=O)C(=O)C2(O)C(O)=C3C(=O)c4c(O)ccc(Cl)c4C(O)C3CC12.Cl (configuration not stated) (library stock concentration (final ~1000-fold dilution): 10 mM),NF-kB SEAP reporter activity,RAW-Dual [1]; agonist: LPS (TLR4) 0.1 ug/mL,1.28
same,NF-kB SEAP reporter activity,RAW-Dual [1]; [4],1.25
same,NF-kB SEAP reporter activity,RAW-Dual [1]; [5],0.881
same,NF-kB SEAP reporter activity,RAW-Dual [1]; [6],0.934
NC(=O)c1cccc(N)c1 (library stock concentration (final ~1000-fold dilution): 10 mM),NF-kB SEAP reporter activity,RAW-Dual [1]; agonist: LPS (TLR4) 0.1 ug/mL,0.985
same,NF-kB SEAP reporter activity,RAW-Dual [1]; [4],0.989
same,NF-kB SEAP reporter activity,RAW-Dual [1]; [5],1.07
same,NF-kB SEAP reporter activity,RAW-Dual [1]; [6],1.13
NC(=O)c1cccc(N)c1,NF-kB SEAP reporter activity,RAW-Dual [2]; [7],0.892
same,NF-kB SEAP reporter activity,RAW-Dual [2]; [8],0.99
